# From the supplement of paper PMC12217912
# This is one part of the list. Sequences were assembled here from the parent chain. Inactive controls read about 0.05.
# B1: TEV protease; numbered along this chain (parent)
# chain: MGESLFKGPRDYNPISSSICHLTNESDGHTTSLYGIGFGPFIITNKHLFRRNNGTLVVQSLHGVFKVKDTTTLQQHLVDGRDMIIIRMPKDFPPFPQKLKFREPQREERICLVTTNFQTKSMSSMVSDTSCTFPSGDGIFWKHWIQTKDGQCGSPLVSTRDGFIVGIHSASNFTNTNNYFTSVPKNFMELLTNQEAQQWVSGWRLNADSVLWGGHKVFMVKPEEPFQPVKEATQL
# Variants of: B1
# Assay: raw area under fraction-flipped curve 0-4 h after induction (AUC4h, not background-subtracted), DNA-recorder readout of cleavage of the substrate (dimensionless); higher = more cleavage of the substrate by the protease variant
# Conditions: temperature: 34 °C; time window: 0-4 h after rhamnose induction
# Method: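 In vivo DNA recorder in E. coli TOP10(DE3) ΔrhaA at 34 °C. Each TEVp single-site mutant (parent TEVp 0) is paired with a single-site variant of the 7-mer TEVs (canonical ENLYFQ|S). The substrate sits between flexible linkers in a Bxb1-sfGFP-TEVs-SsrA fusion, so cleavage stabilises Bxb1 and speeds flipping of a recombination array, read by NGS. The value is the raw area under the fraction-flipped curve over 0-4 h after rhamnose induction (AUC4h), with ≥20 reads per time point. It is not background-subtracted; inactive controls average about 0.047.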
# 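Note: Bxb1 expression induced with 0.2% (w/v) L-rhamnose at OD600 near 0.5, cultures sampled hourly, flipped fraction per protease–substrate barcode pair counted by paired-end Illumina sequencing.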
Variant,area with substrate FNLYFQS,area with substrate HNLYFQS,area with substrate INLYFQS,area with substrate KNLYFQS,area with substrate LNLYFQS,area with substrate PNLYFQS,area with substrate SNLYFQS,area with substrate TNLYFQS,area with substrate WNLYFQS,area with substrate YNLYFQS
T114L,0.0705,0.0582,0.0836,0.0596,0.0723,0.0578,0.0682,0.107,0.0586,0.068
S182E,0.0439,–,–,0.0619,–,0.0535,–,–,0.0578,–
S182V,0.0692,0.0564,–,–,–,–,0.0462,0.0591,0.0886,0.0832
P93D,0.0563,0.102,–,–,0.0662,–,0.0595,0.0755,0.0609,–
P94V,0.0524,0.0842,–,–,0.0714,0.0749,–,0.0775,0.0629,–
S121F,0.0926,–,–,–,–,–,0.0661,–,0.051,0.0662
M83E,0.0566,0.0545,–,–,0.083,0.0593,–,–,0.064,–
A196V,0.0871,–,0.0637,0.0598,0.0656,0.083,–,–,–,0.0687
G153C,0.0579,0.0398,0.0798,0.0867,0.0569,0.08,–,0.0343,0.0373,–
S209K,0.12,0.0564,–,–,0.0594,0.0633,–,0.0497,–,–
S209G,0.0412,0.0645,0.077,0.0639,–,0.0648,0.0577,–,0.0524,0.0549
S209W,0.0705,0.062,–,–,–,–,–,–,–,0.075
G2Y,0.081,–,–,0.0713,–,0.127,–,–,–,0.0766
F180H,0.0596,–,–,–,–,0.069,–,–,0.0624,–
G162N,0.0624,0.0529,–,0.0717,–,–,–,0.0473,0.0631,0.0494
N175A,0.077,0.061,0.0557,0.0693,–,0.0455,0.072,0.0628,0.0571,0.0586
I84H,0.0526,–,–,0.0508,0.0573,0.0595,–,0.0581,0.0392,0.0501
F92L,0.0699,0.0697,0.0639,–,0.0657,–,0.0535,0.0552,0.0666,0.0439
T159P,0.0442,–,–,–,–,0.069,0.0716,0.0651,–,0.0648
N206R,0.0482,–,0.0721,–,0.105,0.0641,0.0556,0.0462,0.0574,0.0755
F65I,0.056,0.064,–,0.0519,0.0537,0.0139,–,0.0626,0.0528,0.0634
K98R,0.0652,0.0612,0.0763,0.0748,0.0749,0.0792,–,0.0504,0.0372,0.0597

Variant,area with substrate FNLYFQS,area with substrate HNLYFQS,area with substrate INLYFQS,area with substrate KNLYFQS,area with substrate LNLYFQS,area with substrate PNLYFQS,area with substrate SNLYFQS,area with substrate TNLYFQS,area with substrate WNLYFQS,area with substrate YNLYFQS
Q97L,0.0556,0.0696,0.0633,–,–,–,0.0655,–,0.06,–
V57Q,0.0675,0.0663,–,–,–,0.0634,–,0.0778,0.048,0.0662
N172V,0.055,0.0759,–,0.0515,0.052,0.0681,–,–,–,–
L99M,0.0474,–,–,0.0726,0.0681,–,–,–,–,0.0747
N116F,0.0798,–,0.0609,–,–,–,–,–,0.0531,0.0575
K185L,0.0491,–,0.0627,–,0.0656,–,–,0.073,0.0686,–
D69F,0.0368,–,0.0432,0.0583,–,–,–,–,0.0602,–
T115R,0.0224,0.0749,0.058,–,0.0281,–,–,0.0654,–,–
S201Q,0.041,–,–,–,–,–,–,0.0773,0.0564,–
H215F,0.0699,–,–,0.0615,0.0667,–,–,0.0478,0.0801,0.0767
V217E,0.0621,0.0549,0.0549,–,–,0.0641,0.0716,–,0.0621,0.05
F163N,0.0745,–,–,0.0725,–,–,–,–,0.052,–
F163P,0.0731,–,–,–,–,–,–,–,0.059,0.0457
F163Y,0.0586,–,–,0.074,–,–,0.0683,–,0.0683,0.0402
N193K,0.0592,0.0611,–,–,–,0.0844,–,–,–,0.0687
E3A,0.0757,0.068,–,0.0384,0.0626,–,0.0622,0.0741,0.0716,0.0672
E3D,0.0626,0.0682,0.0566,–,0.0292,0.0398,0.0674,0.0591,0.0537,0.0655
G35T,0.0451,–,–,–,–,0.0451,–,0.0425,0.0717,–
S124Y,0.0691,0.0628,–,–,0.0666,–,–,–,0.0699,–
Y34H,0.0663,0.0744,0.0835,0.0773,0.0521,–,0.0628,0.0697,0.059,–
G150Y,0.0531,0.0624,–,0.0537,0.0163,0.0701,0.0447,0.0585,0.0628,0.0446
S154D,0.0599,0.0548,0.0593,–,0.0565,0.0336,0.0443,0.0663,–,0.0318

# Same assay, conditions: temperature: 34 °C; time window: 0-4 h after rhamnose induction
Variant,area with substrate GNLYFQS,area with substrate QNLYFQS,area with substrate MNLYFQS,area with substrate NNLYFQS,area with substrate VNLYFQS,area with substrate RNLYFQS
S182V,0.0737,0.066,–,–,–,–
P93D,0.0666,–,0.0719,0.0649,–,–
P94V,0.0948,–,0.0755,–,0.0625,–
S121F,0.0605,–,–,–,–,–
M83E,–,–,0.0631,–,–,–
A196V,0.0619,–,–,0.0543,–,–
G153C,–,–,–,0.0739,0.0448,–
S209G,–,–,0.0805,0.0658,–,–
G2Y,–,–,0.0647,0.0801,–,–
F180H,–,–,–,0.0438,–,–
G162N,–,–,0.0656,–,–,–
N175A,0.0693,–,–,–,0.0634,0.0641
I84H,0.0647,–,0.0483,0.0529,0.05,–
F92L,–,–,0.0806,–,0.0491,–
T159P,–,–,0.0735,–,–,–
N206R,0.0636,–,0.0564,–,0.0545,0.0534
F65I,–,–,–,–,–,0.0733
K98R,0.0673,–,0.0711,–,0.0564,0.0837

Variant,area with substrate GNLYFQS,area with substrate QNLYFQS,area with substrate MNLYFQS,area with substrate NNLYFQS,area with substrate VNLYFQS,area with substrate RNLYFQS
Q97L,–,–,0.0747,–,–,–
L99M,–,–,0.0661,0.0525,–,–
N116F,0.0634,–,0.0672,0.078,–,0.0541
K185L,0.0659,–,–,0.0466,–,0.0843
D69F,–,–,0.0544,–,0.0721,–
T115R,0.0706,0.0695,–,–,0.0626,–
S201Q,0.101,–,–,–,–,–
H215F,–,–,–,0.0477,0.0784,–
V217E,0.0416,–,–,0.0557,–,–
F163N,0.0666,–,–,–,–,–
F163P,–,–,0.0585,–,–,–
F163Y,–,–,0.0667,0.057,0.0686,–
E3A,0.0732,–,–,–,–,–
E3D,–,–,–,0.1,0.0141,0.0596
S124Y,–,0.0752,–,–,–,–
Y34H,–,–,0.0583,–,0.0606,0.063
G150Y,0.0854,–,–,0.0569,–,–
S154D,–,0.0403,–,–,–,–
